We go through 17 molecules from the supplement of paper PMC9446081.

The campaign covered roughly 39,000 compounds. About 220 (0.56%) showed activity. The list shows a part of the results.
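Also: static incubation at 37 °C against the wild-type strain, values averaged over two biological replicates.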

For this experiment, the system named is Escherichia coli K-12 BW25113. Kind of experiment: relative growth (OD600 normalised to plate interquartile mean) (fraction); higher = less growth inhibition, active = 0.2 or less. The settings on record: 50 µM; LB; incubation time: overnight (16-24 h).
As for `C=CC1CN2CCC1CC2C(O)c1ccnc2ccc(OC)cc12` (configuration not stated), the relative growth is inactive: 1.06.
For `O=C(/C=C/c1ccccc1)C1CC1`, the relative growth was inactive: 0.953.
Consider `Cc1ccc(S(=O)(=O)N(C)C[C@H]2OCCCC[C@H](C)Oc3ccc(NC(=O)c4ccccc4)cc3C(=O)N([C@@H](C)CO)C[C@@H]2C)cc1`, for which the relative growth was inactive: 1.02.
Regarding `C[C@H](CO)N1C[C@H](C)[C@@H](CN(C)CC2CCCCC2)OCCCC[C@H](C)Oc2ccc(NC(=O)Cc3ccccc3)cc2C1=O`, the relative growth was inactive: 1.
Consider `C[C@H]1CCCCO[C@@H](CN(C)C(=O)Nc2ccc(F)cc2)[C@@H](C)CN([C@@H](C)CO)C(=O)c2cc(NS(=O)(=O)c3ccc(Cl)cc3)ccc2O1`, for which the relative growth is inactive: 1.01.
Consider `C[C@H](C(=O)N(C)C[C@H]1OCc2ccccc2-c2c(n(C)c3ccccc23)C(=O)N([C@@H](C)CO)C[C@H]1C)c1ccccc1`, for which the relative growth is inactive: 1.02.
Regarding `C[C@H](CO)N1C[C@H](C)[C@H](CN(C)S(=O)(=O)c2ccc(-n3cccn3)cc2)OCc2cn(nn2)CCCC1=O`, the relative growth was inactive: 0.99.
For `C[C@@H]1CN([C@H](C)CO)C(=O)c2cc(NC(=O)C3CCCCC3)ccc2O[C@@H]1CN(C)S(=O)(=O)c1cn(C)cn1`, the relative growth is inactive: 0.982.
On to `C[C@@H]1CCCCO[C@@H](CN(C)Cc2ccc3c(c2)OCO3)[C@@H](C)CN([C@@H](C)CO)C(=O)c2cc(NC(=O)CCC(F)(F)F)ccc2O1`, for which the relative growth is inactive: 1.02.
`C[C@@H]1CCCCO[C@@H](CN(C)C(=O)Nc2ccc(F)cc2)[C@@H](C)CN([C@@H](C)CO)C(=O)c2cc(NC(=O)Nc3cccc4ccccc34)ccc2O1`: the relative growth is inactive: 1.05.
With `C[C@@H]1CCCCO[C@@H](CN(C)Cc2ccc(F)cc2)[C@H](C)CN([C@@H](C)CO)C(=O)c2cc(NC(=O)Nc3ccccc3)ccc2O1`, the relative growth is inactive: 1.03.
On to `CN(C)c1ccc2c(=O)[nH][nH]c(=O)c2c1`, for which the relative growth is inactive: 0.998.
Regarding `C[C@H]1CN([C@@H](C)CO)C(=O)c2cc(NS(=O)(=O)c3ccc(Cl)cc3)ccc2O[C@H]1CN(C)C(=O)Nc1ccc(C(F)(F)F)cc1`, the relative growth is inactive: 0.973.
With `C[C@@H]1CN([C@@H](C)CO)C(=O)c2cc(NC(=O)c3ccccc3)ccc2O[C@@H](C)CCCCO[C@H]1CN(C)C(=O)Nc1cccc2ccccc12` the figure was inactive: 1.02; with `C=CC[C@H](CC(=O)NCCO)C(=O)N[C@H](COC(=O)[C@H](CC=C)CC(=O)OC(C)(C)C)Cc1c[nH]c2ccccc12`, inactive: 0.996; with `O=C(O)C12C3CCC4C5C3C1C5(C(=O)O)C42` (configuration not stated), inactive: 0.991.
Take `CCCNC(=O)N[C@H]1C=C[C@@H](CC(=O)N2CCN(C)CC2)O[C@H]1CO`: the relative growth is inactive: 1.03.
